# Measured values reported in paper PMC4336329 (PLoS ONE, 2015).
# The whole screen tested about 310,000 compounds, of which about 2,200 (0.71%) showed an effect of 50% or more. Effects have a minus sign here. Some of the results follow.
# Biological target: human ether-à-go-go-related gene (hERG) potassium channel (human, UniProt Q12809)
# Experiment: primary screen, population patch clamp on CHO cells stably expressing hERG
# Sequence of human ether-à-go-go-related gene (hERG) potassium channel (Q12809 whole entry, looked up): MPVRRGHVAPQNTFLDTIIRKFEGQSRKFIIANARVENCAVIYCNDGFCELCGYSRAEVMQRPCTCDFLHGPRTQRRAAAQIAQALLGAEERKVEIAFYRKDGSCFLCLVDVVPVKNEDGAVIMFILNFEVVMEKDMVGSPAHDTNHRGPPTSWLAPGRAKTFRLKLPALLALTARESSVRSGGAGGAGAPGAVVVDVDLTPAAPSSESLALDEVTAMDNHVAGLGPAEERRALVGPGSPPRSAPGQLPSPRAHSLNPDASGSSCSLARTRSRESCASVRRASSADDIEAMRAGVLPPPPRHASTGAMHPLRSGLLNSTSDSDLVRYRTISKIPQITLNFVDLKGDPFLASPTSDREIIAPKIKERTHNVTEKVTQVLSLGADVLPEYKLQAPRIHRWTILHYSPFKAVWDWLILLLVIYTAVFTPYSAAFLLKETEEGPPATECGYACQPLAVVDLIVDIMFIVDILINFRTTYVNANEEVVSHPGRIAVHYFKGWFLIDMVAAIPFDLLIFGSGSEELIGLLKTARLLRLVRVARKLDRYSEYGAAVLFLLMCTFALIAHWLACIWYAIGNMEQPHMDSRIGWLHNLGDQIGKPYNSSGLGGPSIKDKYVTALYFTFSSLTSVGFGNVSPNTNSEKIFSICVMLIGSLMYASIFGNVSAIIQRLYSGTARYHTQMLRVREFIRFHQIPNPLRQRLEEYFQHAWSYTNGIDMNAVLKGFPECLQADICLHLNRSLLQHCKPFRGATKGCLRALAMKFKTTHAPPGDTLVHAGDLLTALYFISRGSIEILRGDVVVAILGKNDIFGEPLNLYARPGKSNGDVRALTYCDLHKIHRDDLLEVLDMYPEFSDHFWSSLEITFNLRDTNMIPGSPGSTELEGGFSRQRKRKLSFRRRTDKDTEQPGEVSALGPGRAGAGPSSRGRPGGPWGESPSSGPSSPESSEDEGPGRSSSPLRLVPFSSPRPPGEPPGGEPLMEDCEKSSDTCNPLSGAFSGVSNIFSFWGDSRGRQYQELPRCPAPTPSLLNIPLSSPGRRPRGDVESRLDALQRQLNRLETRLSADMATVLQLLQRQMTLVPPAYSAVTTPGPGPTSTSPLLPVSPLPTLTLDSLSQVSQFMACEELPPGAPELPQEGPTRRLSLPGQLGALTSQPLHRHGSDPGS
row,Structure (SMILES),"hERG current change (%, negative = inhibition) at 1uM [%]"
1,O=C(CSc1nnc2ccccn12)c1ccc2c(c1)OCCO2,7.62
2,COCCOC(=O)N/C=C\c1nc2ccccc2c(=O)[nH]1,5.13
3,CCOCCCNC(=O)CSc1nc2nc(C)c(Cc3ccccc3)c(C)n2n1,10
4,O=C(C1CCCN1S(=O)(=O)c1cccc2cccnc12)N1CCc2ccccc2C1 (stereo not shown),-19.9
5,N#Cc1cc2c(=O)n3ccccc3nc2n(-c2ccc(Cl)cc2)c1=O,15.8
6,O=C(NCc1ccccc1)c1ccc(S(=O)(=O)N2CCCc3ccccc32)cc1,13.5
7,CC(CNC(=O)C(C)(C)C)NC(=O)C(C)(C)C (stereo not shown),1.97
8,O=C(c1cccs1)N1CCN(Cc2nc3ccccc3c(=O)[nH]2)CC1,-8.39
9,CCn1c(Cc2ccccc2)nnc1SCC(=O)Nc1ccc(OC)cc1,16
10,COC(=O)c1ccc(NC(=O)N2CCOCC2)cc1,1.42
11,CCCN(CCC)C(=O)CCS(=O)(=O)c1cccc2nsnc12,1.18
12,CCOC(=O)N1CCN(S(=O)(=O)c2ccc(C(=O)Nc3nc4ccccc4s3)cc2)CC1,11.8
13,COc1ccc(/C=N/OCC(=O)OCC(=O)N(C)c2ccccc2)cc1,1.79
14,O=C(CSc1nnc(NC(=O)c2c(F)cccc2F)s1)NC1CC1,18.3
15,COc1ccc2nc(N3CCN(C(=O)c4ccc5ncsc5c4)CC3)sc2c1,5.19
16,CCC(C)(C)n1nnnc1C(c1cc2ccc(C)cc2[nH]c1=O)N(Cc1cccnc1)Cc1ccco1 (stereo not shown),-2.99
17,O=C(NCc1ccco1)c1ccc(-c2cccc(Cl)c2)o1,7.2
18,COc1cc(C(=O)OCC(=O)NC(=O)NC2CCCCC2)cc(Cl)c1OC,-10.3
19,Cn1nnnc1SCc1ccc(F)cc1,10.6
20,O=C(CSc1nc2ccccc2c(=O)[nH]1)Nc1ccccc1O,11.2

row,Structure (SMILES),"hERG current change (%, negative = inhibition) at 1uM [%]"
1,COc1ccc2cc(C(=O)C3CCCN(C(=O)Cc4c(C)noc4C)C3)ccc2c1 (stereo not shown),-34.3
2,COc1ccc(Nc2cc(C(=O)NCc3ccco3)c3ccccc3n2)c(OC)c1,8.32
3,N=C1SCC(=O)N1Cc1ccccc1,14.5
4,O=C(CC1Oc2ccccc2NC1=O)NCCCN1CCOCC1 (stereo not shown),-2.74
5,O=C(Cc1ccc(-n2cnnn2)cc1)NC12CC3CC(CC(C3)C1)C2,-0.38
6,O=C(c1cnn2c(C(F)F)cc(C3CC3)nc12)N1CCc2ccccc2C1,1.43
7,CC(=O)c1cccc(N(CC(=O)Nc2ccc(S(=O)(=O)N3CCOCC3)cc2)S(C)(=O)=O)c1,8.68
8,C=CCOc1cccc(C2C(C(=O)c3ccc(C)o3)=C(O)C(=O)N2c2nccs2)c1 (stereo not shown),15.8
9,CCCCN(C(=O)c1cnc(C)cn1)c1c(N)n(CCC)c(=O)[nH]c1=O,9.52
10,COc1ccc(CNC(=O)c2ccc(Cn3nc(C)cc3C)o2)cc1,26.5
11,O=C(CSc1ccccc1)Nc1ccc(S(=O)(=O)NCC2CCCO2)cc1 (stereo not shown),14.2
12,Cc1ccc(NC(=O)c2sc(N)nc2-c2ccccc2)cc1C,7.85
13,COc1ccccc1CCNC(=O)c1csc2c1CCCC2,10.5
14,COc1cccc(-n2c(C)n[nH]c2=O)c1,10.2
15,O=C(Nc1ccccc1C(=O)N1CCOCC1)c1noc2c1CCCC2,-1.97
16,CCCc1nc2ccccc2c(=O)n1-c1ccc(C(=O)OCC)cc1,10.4
17,COc1ccccc1CNC(=O)CCCNC(=O)Cn1cnc2sc(C)c(C)c2c1=O,18.2
18,O=C(CCc1nnc(Cc2cccc(C(F)(F)F)c2)o1)NC1CC1,12.6
19,Cc1ccsc1S(=O)(=O)N1CCC(CO)(CC2CCCCO2)CC1 (stereo not shown),7.47
20,CCOC(=O)N1CCN(C(=O)C2CCCN(S(=O)(=O)c3ccc(C)cc3)C2)CC1 (stereo not shown),-6.54

row,Structure (SMILES),"hERG current change (%, negative = inhibition) at 1uM [%]"
1,Cc1c(C)n(-c2ccc(Cl)cc2)c2ncnc(N)c12,11.9
2,N#Cc1c(-c2ccccc2)cc(-c2ccccc2)nc1SCC(=O)NCC(=O)O,-0.814
3,CN1N=C(/C=C/c2ccccc2)CCC1=O,9.02
4,COC(=O)COc1ccc(S(=O)(=O)Nc2ccc(NC(C)=O)cc2)cc1,16.3
5,CCC(CC)C(=O)N1CC(=O)Nc2ccc(F)cc2C1c1ccc(F)cc1 (stereo not shown),5.45
6,CCC(=O)c1ccccc1OCCN1C(=O)NC(C)(C)C1=O,3.66
7,COc1ccc(Cc2nc3ccccc3[nH]c2=O)cc1,19.1
8,O=C1C(=Cc2ccco2)C(=O)c2ccccc21,2.23
9,Cc1ccsc1/C=N/n1c(-c2ccncc2)n[nH]c1=S,19.8
10,Cc1cc(C)n2c(SCC(=O)NC3CCCCC3C)nnc2n1 (stereo not shown),1.06
11,c1ccc(CSc2ccc3nnc(-c4ccccn4)n3n2)cc1,-26.6
12,CC(=O)N1c2ccc(S(=O)(=O)NCC3CCC(C(=O)Nc4ccc(C)cn4)CC3)cc2CC1C (stereo not shown),14.4
13,C[C@@H](C(=O)N1CCNCC1)n1cc(CCCN=C(N)N)nn1.Cl,14.3
14,COCCNC(=S)N1CCN(S(C)(=O)=O)CC1,19.1
15,CC(C)c1ccc(OCC(=O)N2CCN(C)CC2)c(Br)c1,-12.1
16,CCn1c(SCC(=O)Nc2cc(C)ccc2C)nc2c(c1=O)SC(C)C2 (stereo not shown),-14.2
17,COc1ccc(C(CNC(=O)CN2C(=O)NC3(CC(C)CC(C)(C)C3)C2=O)N2CCOCC2)cc1 (stereo not shown),14.3
18,CCCOc1ccc(N2CC(C(=O)Nc3ccccn3)CC2=O)cc1 (stereo not shown),-1.16
